Experimental findings from publication PMC6919601, “Identification of Plasmodium dipeptidyl aminopeptidase allosteric inhibitors by high throughput screening” (PLoS ONE, 2019) are described below.

Structures are written as SMILES. The campaign covered roughly 110,000 compounds. About 230 (0.21%) showed an effect of 50% or more. This is one part of the list.
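Also: 30 min substrate incubation versus DMSO and 10 µM JCP410 controls.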

The target of this assay is DPAP1 (Plasmodium falciparum, UniProt Q8IIJ9). Kind of assay: primary screen, percent inhibition; read by cleavage of a fluorogenic dipeptide substrate; higher = more effect of the substance. The arrangement: species or system P. falciparum D10 trophozoite lysates; single well.
Chain of DPAP1 (Q8IIJ9 whole entry, looked up): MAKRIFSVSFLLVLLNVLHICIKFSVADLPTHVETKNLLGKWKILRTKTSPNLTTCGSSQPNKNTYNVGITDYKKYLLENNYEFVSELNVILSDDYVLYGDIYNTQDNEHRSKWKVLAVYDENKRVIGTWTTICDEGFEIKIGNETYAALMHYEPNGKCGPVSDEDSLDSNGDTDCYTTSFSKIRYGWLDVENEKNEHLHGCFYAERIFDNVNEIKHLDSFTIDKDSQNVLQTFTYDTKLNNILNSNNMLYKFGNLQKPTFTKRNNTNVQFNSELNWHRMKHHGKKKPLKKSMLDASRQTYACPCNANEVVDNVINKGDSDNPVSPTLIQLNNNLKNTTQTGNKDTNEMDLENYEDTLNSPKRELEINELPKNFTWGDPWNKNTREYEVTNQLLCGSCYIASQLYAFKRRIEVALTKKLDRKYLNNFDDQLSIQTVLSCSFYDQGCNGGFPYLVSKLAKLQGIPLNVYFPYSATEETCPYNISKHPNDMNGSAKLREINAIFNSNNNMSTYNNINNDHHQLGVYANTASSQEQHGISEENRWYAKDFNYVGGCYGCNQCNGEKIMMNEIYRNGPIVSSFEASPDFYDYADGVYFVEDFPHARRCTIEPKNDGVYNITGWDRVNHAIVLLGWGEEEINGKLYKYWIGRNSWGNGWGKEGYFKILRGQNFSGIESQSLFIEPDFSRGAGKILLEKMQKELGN
In the case of `CCCCn1cnc2scc(-c3ccccc3)c2c1=O`, the “% Inhibition @ 10 uM” value is recorded as -5.35%.
For the compound `COc1ccc(C2CC(=O)NC3=C2C(=O)CC(C)(C)C3)c(OC)c1OC` (centres unmarked), the “% Inhibition @ 10 uM” value was -8.69%.
For `O=C(O)C1C2C=CC(C2)C1C(=O)NCc1ccncc1` (centres unmarked), the “% Inhibition @ 10 uM” value was -2.83%.
For the compound `O=S(=O)(NC(c1ccccc1)c1ccccc1)c1ccc(F)cc1`, the “% Inhibition @ 10 uM” value is 0.827%.
For the compound `CC(C)=C1SC(N2CCN(CCC#N)CC2)=NC1=O`, the “% Inhibition @ 10 uM” value came to 2.36%.
The value for `C/C(=N\Cc1ccc2c(c1)OCO2)C1=C(O)c2ccccc2C1=O` was -1.92%; that for `CCOc1ccc(OCC)c(S(=O)(=O)n2cnc(C)c2)c1` was -2.94%.
The result for `CCOC(=O)c1c(C)c(-c2ccccc2)n(CC(=O)N2CCCC(C)C2)c1C` (centres unmarked) reads 0.0579%.
The result for `Cc1ccc(C)c(NS(=O)(=O)c2ccc(Cl)cc2)c1` reads 0.135%; that for `CCOc1ccc(/C=C/c2nc(C#N)c(N3CCCC3)o2)cc1`, -2.57%; that for `CCN(CC)C(=O)c1c(C)oc2cc3c(N(CC)CC)c(C)oc3cc12`, -10.8%.
`Cc1cc(-n2c(SCC(=O)NCc3cccc(Cl)c3)nc3nnc(C)c-3c2N)ccc1Cl`: the “% Inhibition @ 10 uM” value is listed as 1.42%.
The value for `Clc1ccc(Cl)c(-n2ncc3c2ncn2nc(Cc4ccccc4)nc32)c1` was -1.11%.
Turning to `Cc1ccc(S(=O)(=O)Oc2cccc3cccnc23)cc1`, the “% Inhibition @ 10 uM” value is -4.27%.
The value for `Cc1ccc(OCC(=O)O)c(-n2nc3ccccc3n2)c1` was 1.92%; that for `COc1cccc(C2C3=C(O)CCCC3=NC(C)=C2C(=O)Nc2ccc(F)cc2F)c1` (centres unmarked) was -5.34%; that for `Cc1nn(CC(=O)N2CCC(C)CC2)c2ccccc12` was -4.71%.
`O=C(O)CSc1c2c(nc3cc(C(=O)NCC4COc5ccccc5O4)ccc13)CCCC2` (centres unmarked): the “% Inhibition @ 10 uM” value came out at 9.02%.
The value for `COCCN1C(=O)/C(=C/c2ccc(Cl)s2)S/C1=N\c1ccccc1` was -7.3%.
The result for `O=C(CCCCn1c(=O)[nH]c2ccsc2c1=O)NC1CCN(Cc2ccccc2)CC1` reads -0.228%.
The value for `COc1ccc(C(=O)Nc2nc3ccccc3s2)cc1OC` was 4.76%; that for `Cc1cc2c(o1)-c1c(oc3ccc(Cl)cc13)CCC2(C)c1ccccc1` (centres unmarked) was -0.0494%.
Take `COc1ccc(C(=O)N2CCN(c3ccc(F)cc3)CC2)cc1`: the “% Inhibition @ 10 uM” value came to 1.62%.
As for `CCOCCCNC(=O)C(NC(=O)c1ccccc1O)c1ccc(Cl)cc1` (centres unmarked), the “% Inhibition @ 10 uM” value is -3.78%.
As for `CC(C(=O)N1CCN(Cc2ccc3c(c2)OCO3)CC1)N1C(=O)c2ccccc2C1=O` (centres unmarked), the “% Inhibition @ 10 uM” value was -2.98%.
The result for `O=C(O)CCCn1cc(NC(=O)COc2ccc(F)cc2)cn1` reads 2.99%; that for `COc1ccc(OC)c(C(c2c(O)nc(S)nc2O)N2CCCCC2)c1` (centres unmarked), -2.8%.
The value for `N#Cc1c(N)n(-c2ccc3ccccc3c2)c2nc3ccccc3nc12` was -0.0372%; that for `O=C(CCCc1nnc2n3nc(-c4ccccc4)nc3c3ccccc3n12)NCc1cccnc1` was 20.1%.
Take `CC(C)c1nc2sc3c(N4CCOCC4)ncnc3c2c2c1COC(C)(C)C2`: the “% Inhibition @ 10 uM” value was -3.13%.
The result for `COc1ccc(C2C(C(C)=O)=C(C)N=c3s/c(=C/c4ccccc4)c(=O)n32)cc1` (centres unmarked) reads 0.35%.
In the case of `Nn1cnn2c(SCC(=O)c3ccccc3)nnc12`, the “% Inhibition @ 10 uM” value was -2.39%.
The value for `CO/C(O)=C1\C(C)=Nc2nnnn2C1c1cc(Br)ccc1OC` (centres unmarked) was -3.53%; that for `Cc1ccc(C)c(NC(=O)C2CC(=O)N(C3CCCCC3)C2)c1` (centres unmarked) was -0.0648%; that for `COc1ccc2sc(SC[C@H]3CCCC[C@H]3C(=O)NCC#N)nc2c1` was -3.04%.
The value for `C=CCn1c(O)c(CN2CCN(Cc3ccccc3)CC2)c(C)c(C#N)c1=O` was -4.04%; that for `CSc1ccc(CCNc2ncnc3c2nc2n3CCCCC2)cc1` was -6.62%.
In the case of `OC1CCN(Cc2cccc3ccccc23)CC1`, the “% Inhibition @ 10 uM” value is 4.73%.
The result for `CCOc1ccc(S(=O)(=O)Nc2ccc(OC)c(Cl)c2)cc1` reads 3.35%.
For `CC(C)C[C@H](NC(=O)OCc1ccccc1)C(=O)NCC(=O)CN(Cc1ccccc1)C(=O)OC(C)(C)C`, the “% Inhibition @ 10 uM” value came to 3.66%.
The value for `CCOc1ccc(N(CC(=O)N2CCCC2)S(=O)(=O)c2ccc(C)cc2)cc1` was -8.61%.
The result for `C=CCN1C(=O)N/C(=C/c2cc(Br)ccc2OC)C1=O` reads -1.02%; that for `COc1ccc(/C=C2/SC(=O)N(C(C)C)C2=O)c(C)c1`, -5.3%.
The result for `CCCc1nc(C)cc(N2CCOCC2)n1` reads 2.25%; that for `COc1ccc(CCNC(=O)c2nonc2NC(C)=O)cc1OC`, -10.8%.
For `CC(C)n1c(-c2ccccc2)nc2ccccc21`, the “% Inhibition @ 10 uM” value was -0.769%.
The value for `O=C(NCc1ccc2c(c1)OCO2)c1cccnc1SCc1ccccc1Cl` was 2.8%; that for `CN1C(=O)C(CC(=O)Nc2ccc(F)cc2)S/C1=N/c1ccccc1` (centres unmarked) was -3.83%; that for `COc1cc(OC)cc(C(=O)Nc2nc(-c3nnn(-c4cc(C)cc(C)c4)c3C)ns2)c1` was -3.76%.
The result for `COc1ccc(C(=O)Nc2cccc(C(F)(F)F)c2)cc1OC` reads -3.65%.
Turning to `O=C(O)CCCC(=O)Nc1nc(-c2ccc(Cl)cc2)cs1`, the “% Inhibition @ 10 uM” value turned out to be 0.687%.
The value for `CCC(C(=O)NCc1ccccc1C)n1ncn2c(cc3occc32)c1=O` (centres unmarked) was -3.79%.
Take `CC(C)(C)c1ccc(C(=O)NCCSc2c[nH]c3ccccc23)cc1`: the “% Inhibition @ 10 uM” value is -0.321%.
The value for `COc1cc(OC)cc(C(=O)N2CCN(Cc3ccc(C(F)(F)F)cc3)CC2)c1` was -4.26%; that for `CCN1C(=O)c2ccc(C(=O)Nc3ccc(Br)cc3C(=O)O)cc2C1=O` was -17.9%.
The result for `COc1ccccc1Cn1cccc1C=O` reads 7.47%.
The result for `Cc1cccc(Oc2nc3c(C)cccn3c(=O)c2/C=C(\C#N)C(=O)NCc2ccco2)c1C` reads 2%; that for `CCOc1ccc(S(=O)(=O)Nc2sc3c(c2C(N)=O)CCCCCC3)cc1`, 9.28%; that for `CN(C)CCN(C)Cc1ccccc1C(F)(F)F`, 1.9%.
Consider `Cc1ccccc1NC(=O)N1CCOCC1`, for which the “% Inhibition @ 10 uM” value is reported as -0.0804%.
`O=C(CSc1ncn(-c2ccccc2)n1)Nc1nccs1`: the “% Inhibition @ 10 uM” value is given as 1.96%.
The value for `OC(CNc1ccccc1)Cn1c2ccccc2c2ccccc21` (centres unmarked) was 0.962%; that for `CCn1c2c(c(=O)[nH]c1=O)C(c1ccc(C(C)(C)C)cc1)C1=C(O)c3ccccc3C1=N2` (centres unmarked) was -6.55%.
The result for `OCC1OC(n2nnc3ccccc32)C(O)C(O)C1O` (centres unmarked) reads 3.35%.
Consider `CC(=O)C(C#N)NC(=O)C(CC(C)C)NC(=O)c1cccc(-c2ccccc2)c1` (centres unmarked), for which the “% Inhibition @ 10 uM” value was -1.41%.
The result for `COc1ccc2nc(-c3ccccc3)nc(NCCN3CCCC3)c2c1` reads 33.9%.
The result for `Cc1ccc(C)n1-c1nnc(N2CCC(C(=O)NCc3ccc4c(c3)OCO4)CC2)s1` reads 4.33%; that for `O=C(O)c1cccc(-c2ccc(CO)o2)c1`, 0.415%.
As for `Cc1nc2nc(C)c(CCC(=O)N3CCC4(CC3)OCCO4)c(C)n2n1`, the “% Inhibition @ 10 uM” value was 4.54%.
Take `Cc1nc2c(=O)oc3ccccc3c2n1C`: the “% Inhibition @ 10 uM” value was found to be 4.35%.
For `COc1ccc(NC(=O)c2cnn3c(C(F)(F)F)cc(-c4cccc(OC)c4)nc23)cc1`, the “% Inhibition @ 10 uM” value was -5.44%.
As for `Cc1cc(C)c2c(N)c(C(=O)Nc3cccc4ccccc34)sc2n1`, the “% Inhibition @ 10 uM” value was 9.77%.
On to `CCCc1cc(O)n2nc(-c3ccco3)nc2n1`, for which the “% Inhibition @ 10 uM” value was -0.671%.
The result for `O=C(O)c1ccc(Nc2nc(-c3ccc(Cl)cc3)cs2)cc1` reads -3.14%; that for `CCN(CC)C(=O)C1CCCN(C/C=C/c2ccccc2)C1` (centres unmarked), 0.273%.
Regarding `O=C(NCC(O)c1ccccc1)c1ccc(Br)cc1` (centres unmarked), the “% Inhibition @ 10 uM” value was -5.47%.
The result for `COc1cc(C2C3=C(O)CC(C)(C)CC3=NC3=C2C(=O)CC(C)(C)C3)c(Br)cc1O` (centres unmarked) reads 0.851%; that for `CCOc1ccc2nc(NC3=NCN(CCN4CCOCC4)CN3)nc(C)c2c1`, -1.69%; that for `CCCSc1nnc(NC(=O)c2sc3nc(-c4cccs4)ccc3c2N)s1`, 1.31%.
On to `Cc1c2cnn(CC(=O)NC(C)CCc3ccccc3)c(=O)c2c(C)n1Cc1ccc(Cl)cc1` (centres unmarked), for which the “% Inhibition @ 10 uM” value is reported as -0.659%.
As for `CC(CCN(C)C1CCN(C)CC1)c1ccccc1` (centres unmarked), the “% Inhibition @ 10 uM” value was -2.95%.
The result for `CC(CNc1nnc2c3ccccc3n(C)c2n1)c1ccccc1` (centres unmarked) reads -4.69%.
As to `Cc1cc(C)nc(SCC(=O)Nc2ccccc2Br)n1`, the “% Inhibition @ 10 uM” value is given as 0.687%.
`CN1CCC(N(C)C/C(Cl)=C/c2ccccc2)CC1`: the “% Inhibition @ 10 uM” value came to 1.38%.
With `CN1CCN(CC(=O)Nc2c(C(=O)c3ccccc3)oc3ccccc23)CC1`, the “% Inhibition @ 10 uM” value is reported as -11.2%.
Turning to `CCC(=O)NS(=O)(=O)c1ccc(NC(=O)c2ccccc2)cc1`, the “% Inhibition @ 10 uM” value was determined as 1.15%.
The result for `O=C(N/C(=C\c1ccccc1)C(=O)N1CCN(c2ccccn2)CC1)c1ccccc1` reads -4.65%.
The value for `CC1CC(C)(C)NC(=S)N1CCC(=O)N1CCCCCC1` (centres unmarked) was -2.4%; that for `O=C(CN(CCc1ccccc1)S(=O)(=O)c1cc(Cl)ccc1Cl)N1CCCCC1` was -5.34%.
The result for `Cc1cc(NC(=O)c2sc3nc(-c4ccncc4)ccc3c2N)ccc1Br` reads -2.8%.
Regarding `CC(NC(=O)c1ccc2c(c1)OCO2)C12CC3CC(CC(C3)C1)C2` (centres unmarked), the “% Inhibition @ 10 uM” value was -1.51%.
The result for `CCc1ccccc1NC(=O)[C@@H]1C[C@@H]1c1ccccc1` reads 1.48%; that for `CC1(C)CC(=O)C2=C(C1)OC(N)=C(C#N)C2c1ccc(C(F)(F)F)cc1` (centres unmarked), -0.99%; that for `CN(C)/C=C1/C(=O)N(c2nc3ccccc3s2)N=C1C(F)(F)F`, 1.26%.
As to `Cc1nc2cccnc2n1-c1ccc(C(=O)N2CCCCCC2)cc1`, the “% Inhibition @ 10 uM” value is listed as -1.48%.
As for `CCNC(=O)CCSc1cccc2cccnc12`, the “% Inhibition @ 10 uM” value was -2.19%.
The value for `CCOc1ccc(-c2cn3c(n2)sc2cc(C(=O)N4CCN(C)CC4)ccc23)cc1` was 13.8%.
The value for `Fc1ccccc1CSc1ncn(-c2ccccc2)n1` was 5.39%; that for `CSc1ccc(C2C3=C(O)CCCC3=Nc3nc4ccccc4n32)cc1` (centres unmarked) was -1.62%.
The value for `CC(=O)c1nn(-c2ccc(Cl)cc2)cc1C(=O)c1ccccc1` was 0.431%; that for `OCCN1CCN(CCCN2Cc3ccccc3CCc3ccccc32)CC1` was -1.11%.
